From PubChem BioAssay AID662 (National Center for Advancing Translational Sciences (NCATS), 2007)
Out of some 71,000 compounds screened, about 1,800 (2.5%) were called active. The inconclusive results got no clear call from the source; some entries with a clear call stand among them for comparison. Calls follow the shape of the dose curve; as a rule, active = well fitted activation curve with a large enough effect in the signal ratio, with a control signal flat (not every such curve was filed as active); inconclusive = small, poorly fitted or top-dose-only effect, or effect the other way, or a change in a side signal; inactive = flat fitted curve, though single readings scatter; the % refers to the signal ratio. Potencies of inconclusive entries are doubtful fits and often do not repeat.

experiment: Cell signaling CRE-BLA (Fsk stim); settings: CHO CRE-bla reporter (cAMP response element driving beta-lactamase), forskolin EC10, beta-lactamase ratio; activity change, negative = inhibition: at 38.2 µM (top of the series) unless noted; as to activity change, negative = inhibition: % of control where 0% means no effect
How it was run: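 Modulation of forskolin signalling: compounds in titration series added with EC10 NKH 477 to CHO cells carrying a CRE-driven beta-lactamase reporter, 3 h, 37C. CCF4 FRET ratio (460/530 nm, ex 405 nm) gives %activity and AC50.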
Potency is read from the fitted curve at half-maximal effect; tags tell the direction and shape of the fitted curve.

Structure (SMILES) | Potency | activity change, negative = inhibition
COc1ccc(-c2noc(CSc3nc4ccccc4c(=O)n3-c3ccccc3)n2)cc1OC | inconclusive: 12.6 µM [rising, partial curve] | 
O=C(Nc1ccc(NC(=O)C2CC2)nc1)c1cccc(F)c1 |  | inconclusive: 7.61%
CC(=O)N(Cc1ccccc1)c1ncc2c(n1)c(=O)c(C#N)c1ccccn12 | inconclusive: 20 µM [falling, single point] | 
Cc1[nH]c2ccccc2c1SCCNC(=O)c1ccc(Br)o1 | inconclusive: 12.6 µM [falling, single point] | 
COc1ccccc1-n1cc(C(=O)NCC(=O)N2CCN(c3ccccc3)CC2)c2ccccc2c1=O | inconclusive: 6.31 µM [falling, single point] | 
Cc1ccc(Br)cc1 |  | inactive
CC(C)C[C@@H](CC(=O)N[C@H](CC(=O)N[C@@H]1CCCC[C@H]1C(=O)N[C@H](CC(=O)N[C@@H](CCC(=O)O)CC(=O)O)CC(C)C)C(C)C)NC(=O)[C@@H]1CNCC[C@H]1N |  | inconclusive: -18.1%
Cc1c(NC(=O)C(C)OC(=O)CC2Sc3ccccc3NC2=O)c(=O)n(-c2ccccc2)n1C (configuration not stated) | inconclusive: 3.98 µM [falling, partial curve] | 
COc1ccc(CN/C(C)=C(/C#N)C(N)=O)cc1OC | inconclusive: 6.31 µM [rising, partial curve] | 
COc1ccc(Cl)cc1Nc1cc(C)nc2nc(C)nn12 |  | inactive
O=C(O)CCSC1=NCCN1 |  | inactive: -1.82% [at 7.6 µM]
CC(=O)c1cc(-c2ccccc2)n(CC(=O)NCc2cccs2)c1C |  | inactive
CCN(CC)c1ccc(-n2cc3c(=O)n(C)c(=O)n(C)c3c2)cc1 | active: 10 µM | 
O=C1C(Cl)=C(NCC2CCCO2)C(=O)N1CCc1ccccc1 (configuration not stated) |  | inactive
CCCOC(=O)Nc1nc2ccccc2o1 |  | inactive
CCN1C(=O)CC(N2CCN(c3ccc(C(=O)c4ccccc4)cc3)CC2)C1=O (configuration not stated) |  | inactive
O=C(OCC#CCSc1nnc(-c2ccc(Br)cc2)o1)c1ccco1 |  | inconclusive: 12.2%
O=C(CSc1nnc(-c2ccco2)n1CC1CCCO1)c1ccc(F)cc1 (configuration not stated) |  | inactive
O=c1c(-c2ccc(F)cc2)nc2cncnc2n1Cc1ccccc1 |  | inconclusive: 29.6%
CCN(CC(=O)NCc1cccs1)c1nnnn1-c1ccccc1 |  | inconclusive: -16.2%
O=C(Nc1cccc2ccccc12)OC1C=CS(=O)(=O)C1 (configuration not stated) |  | inconclusive: -13.6%

Structure (SMILES) | Potency | activity change, negative = inhibition
COc1ccc(S(=O)(=O)NCc2ccco2)cc1-c1nnc2c3ccccc3c(C)nn12 | active: 5.01 µM | 
CCOC(=O)Nc1cc(OC)c(OC)cc1Cc1nccc2cc(OC)c(OC)cc12 | active: 6.31 µM | 
CCNc1ncc2nc(-c3cn(C)c4ccccc34)c(=O)n(Cc3cccc(OC)c3)c2n1 | inconclusive: 3.16 µM [rising, partial curve] | 
COc1ccc(-c2nc3cnc(Nc4cccc(OC)c4)nc3n(C[C@H]3CCCO3)c2=O)cc1 | inconclusive: 10 µM [rising, partial curve] | 
CCc1nnc(NC(=O)CSc2nnc(C3CCCCC3)n2-c2ccccc2)s1 | inconclusive: 10 µM [rising, single point] | 
COCC(=O)N(Cc1cc2ccccc2[nH]c1=O)c1ccccc1OC |  | inactive
O=C(CSCc1ccccc1)Nc1ccc2c(c1)OCO2 | inconclusive: 2 µM [rising, partial curve] | 
Cc1c(NC(=O)c2c(F)c(F)c(F)c(F)c2F)c(=O)n(-c2ccccc2)n1C |  | inconclusive: 10.5%
Cc1nnc(SC(C)C(=O)Nc2ccc3c(c2)OCCO3)s1 (configuration not stated) | inconclusive: 3.98 µM [rising, single point] | 
Cc1ccc(Cn2nnc3c(=O)n(CC(=O)NCC4CCCO4)cnc32)cc1 (configuration not stated) |  | inconclusive: -2.71%
CNc1ccc(OC(F)F)cc1C(=O)c1ccccc1 | inconclusive: 10 µM [rising, single point] | 
Cc1cc(C(=O)CSc2nnc(-c3cccc(F)c3)n2N)c(C)n1Cc1ccc2c(c1)OCO2 |  | inconclusive: 7.12%
CCn1c(SCC(=O)N2CCOCC2)nc2oc3c(Cl)cc(Cl)cc3c(=O)c2c1=O |  | inactive
c1cncc(-c2nc(Oc3ccc(-c4nnco4)cc3)c3c4c(sc3n2)CCCC4)c1 |  | inactive
O=C(NCc1ccco1)c1cc(-c2ccc(F)cc2)on1 |  | inconclusive: 17.7%
CCCCOc1ccccc1NC(=O)Cn1c(-c2nonc2N)nc2ccccc21 | active: 2 µM | 
COCc1nnc(NC(=O)c2ccco2)s1 |  | inconclusive: 16.2%
COc1ccc(OC)c(C(c2nnnn2Cc2ccccc2)N2CCC(C(N)=O)CC2)c1 (configuration not stated) |  | inactive
COc1ccc(C(=O)N2CCC[C@@]3(CCN(Cc4cc(C(F)(F)F)cc(C(F)(F)F)c4)C3)C2)cc1 |  | inactive
Cc1cc(NCCCCO)n2c(nc3ccccc32)c1C#N | inconclusive: 12.6 µM [rising, partial curve] | 
O=C(CC1(O)C(=O)Nc2cc(Cl)cc(Cl)c21)c1ccncc1 (configuration not stated) |  | inconclusive: 3.43%

Structure (SMILES) | Potency | activity change, negative = inhibition
Cc1nc2ccccc2c2oc(C(=O)N3CCc4ccccc43)cc12 | active: 0.398 µM | 
Cc1nc2ccc(Cl)cc2nc(C)/c1=N\O |  | inactive
O=C(c1cnn2c(C(F)(F)F)cc(-c3ccco3)nc12)N1CCc2ccccc2C1 | inconclusive: 12.6 µM [rising, single point] | 
NC[C@@H](O)CSCc1ccc(Cl)cc1 |  | inactive: 7.38% [at 7.6 µM]
O=C(c1ccccc1)c1ccc(C(=O)N2CCOCC2)cc1 | inconclusive: 0.0251 µM [rising, single point] | 
CCn1c(SCC(=O)N2CCCC2)nc2c(c1=O)SC(C)C2 (configuration not stated) | inconclusive: 10 µM [rising, partial curve] | 
Cc1ccc2nc(N3CCC(C(=O)O)CC3)nc(-c3ccccc3)c2c1 | inconclusive: 3.16 µM [rising, single point] | 
c1ccc(N2CCN(c3nc4cc5c(cc4s3)OCO5)CC2)cc1 |  | inactive
CCOC(=O)NCCc1ccc(OC)cc1 |  | inconclusive: -9.75% [at 7.6 µM]
Cc1oncc1C(=O)Nc1ccc(C(F)(F)F)cc1 |  | inconclusive: -8.14%
COc1ccc(-c2nnn(CC(=O)OC3CCCCC3)n2)cc1OC | inconclusive: 20 µM [rising, single point] | 
COc1ccc(Nc2cc(C)nc3nc(C)nn23)c(OC)c1 | inconclusive: 10 µM [rising, partial curve] | 
N#Cc1nc(Cc2ccccc2)oc1NCCc1ccccc1 |  | inconclusive: 21.2%
c1ccc(N2CCN(CCc3nnc4n3CCCCC4)CC2)cc1 | inconclusive: 3.98 µM [falling, single point] | 
CCCCOC(=O)Nc1nnc(CCOCC)s1 | inconclusive: 20 µM [rising, partial curve] | 
O=C(CCCCCn1c(=O)[nH]c2ccsc2c1=O)N1CCCCC1 |  | inconclusive: 8.79%
COc1ccc(-n2nc(C(=O)NCC(=O)N3CCN(c4ccccn4)CC3)c3ccccc3c2=O)cc1 | inconclusive: 0.1 µM [falling, single point] | 
CN=C(Nc1cc(C)nn1CCC#N)c1ccccc1F | inconclusive: 0.631 µM [falling, single point] | 
COCCn1c(=O)c(-c2cccc(C#N)c2)nc2cnc(OCc3ccccc3)nc21 | inconclusive: 25.1 µM [rising, single point] | 
O=C(COc1ccccc1)Nc1ccccc1N1CCN(c2ccccc2)CC1 |  | inconclusive: 19%
Cn1cc(C2NC(=O)c3c(sc4c3CCCC4)N2)c2ccccc21 (configuration not stated) |  | inactive

Structure (SMILES) | Potency | activity change, negative = inhibition
COc1cccc(-c2nc(-c3ccccn3)no2)c1OC |  | inconclusive: 28.6%
Cc1ccc(Cn2c(-c3nonc3N)nc3ccccc32)cc1 |  | inactive
Brc1ccc(C2=Nn3c(nnc3-c3n[nH]c4c3CCC4)SC2)cc1 | active: 5.01 µM | 
COc1ccccc1-c1nc(C#N)c(N2CCc3ccccc3C2)o1 | inconclusive: 15.8 µM [rising, partial curve] | 
CCN(CC)C(=O)C1CCCc2c1[nH]c1ccc(Cl)cc21 (configuration not stated) |  | inconclusive: -21.8%
Nc1nnc(-c2ccncc2)s1 |  | inconclusive: -15.4%
CN(C)Cc1cc(C(=O)O)cc(CN(C)C)c1O |  | inactive: 8.34% [at 7.6 µM]
COc1cc(-c2noc(CCC(=O)Nc3cccnc3)n2)cc(OC)c1OC | inconclusive: 10 µM [rising, partial curve] | 
COCCn1c(=O)c(CCc2ccccc2)nc2cnc(Oc3ccccc3)nc21 |  | inconclusive: 5.56%
CN1CCN(c2nc3c(c(=O)[nH]c(=O)n3C)n2CCSc2nc3ccccc3s2)CC1 |  | inactive
CC(C)C1Nc2ccc(S(N)(=O)=O)cc2C2C=CCC21 (configuration not stated) |  | inconclusive: -28.4%
COc1ccc(C(=O)N2CCN=C2SCc2cccnc2)cc1OC |  | inactive
O=C(NCC1CC1)[C@H]1C[C@@H]1[C@H](NP(=O)(c1ccccc1)c1ccccc1)c1ccccc1 |  | inconclusive: -0.0515%
CCc1ccccc1NC(=O)Cn1nnc(-c2cccnc2)n1 |  | inconclusive: -6.31%
COc1cc(C2C(C#N)=C(N)Oc3n[nH]c(-c4ccncc4)c32)cc(OC)c1OC (configuration not stated) | inconclusive: 20 µM [rising, single point] | 
CCOC(=O)c1[nH]c(C)c(C(=O)N2CCc3ccccc32)c1C | active: 6.31 µM | 
Clc1ccc2[nH]c3c(c2c1)CCc1cn[nH]c1-3 |  | inconclusive: -24%
CSc1nc(-c2ccco2)nn1S(=O)(=O)c1ccc(C)cc1 |  | inactive
COc1ccc(CNc2ccnc(-c3ccc(C(=O)N(C)C)cc3)n2)c(OC)c1 | inconclusive: 12.6 µM [rising, partial curve] | 
